Measured values as given in PubChem BioAssay AID2060341 (Molecular Pharmacology Branch, DTP, NCI, 2025).
Not every entry of the source has a single result; some have several. The other results are left out here. The source may hold further records. The records of an entry repeat one measurement (runs, samples, wells, individuals or studies).

System: 327498-153-R-J2-PDC multicell spheroid viability
Assay: Anticancer human tumor 327498-153-R-J2-PDC patient-derived uterine carcinosarcoma cell line growth inhibition [IpAb]
Conditions: compound alone; run of 05/18/2021
Description: Combinatorial screen of targeted agents with ipatasertib and abemaciclib in multi-cell type tumor spheroids
A high-throughput screen of multi-cell type tumor spheroids was designed to identify active combinations of targeted small molecules and ipatasertib or abemaciclib. Complex spheroids include a stromal component modeled by human endothelial cells (HUVEC) and fibroblasts modeled by human mesenchymal stem cells (MSCs). The concentration ranges selected for each drug and investigational agent were based upon clinically achievable concentrations if the clinical Cmax of the agent was known.
Compounds. […] If the clinical Cmax for an agent had not been determined, the highest concentration tested was 10 microM.
NCI60 Cell Culture. […] The optimal seeding densities for each of the cell lines at each time point assessed were determined prior to performing the concentration response studies. […]
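Note: spheroids exposed to agents for 7 days.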

IC50: 855 nM, 746 nM, 806 nM, > 1 µM
Compound: CCN1CCN(Cc2ccc(Nc3ncc(F)c(-c4cc(F)c5nc(C)n(C(C)C)c5c4)n3)nc2)CC1
